Assay results taken from ChEMBL document CHEMBL4888484, “Replenishing the malaria drug discovery pipeline: Screening and hit evaluation of the MMV Hit Generation Library 1 (HGL1) against asexual blood stage Plasmodium falciparum ,using a nano luciferase reporter read-out” (2022).
Hit rate of the full screen: of about 150,000 compounds, about 540 (0.36%) showed an effect of 50% or more. Some of the results follow.

Tested on: Plasmodium falciparum
Assay: Primary screen in NF54 nanoGlo assay, in single point, at 2uM, 72h; a lower Z score goes with more inhibition
Format: functional, Erythrocyte
Conditions: timepoint 72 hour

SMILES | % Inhibition [%] | Z score
Cc1ccccc1CNC(C)(C)c1nnc2n1CCCC2 | -6 | 1.15
O=C(Nc1ccc2c(c1)OCCO2)N1CC(n2cnnc2[C@@H]2CCCO2)C1 | -10 | 1.5
CN(Cc1nccn1C)c1ccc2cc[nH]c2n1 | -14 | 1.5
CN(C(=O)C(O)C1CCC1)C1CCN2CCOC1C2 (configuration not stated) | -21 | 2.49
COc1cc(OC)cc(C(=O)Nc2cccc(NC(=O)c3cc(OC)cc(OC)c3)n2)c1 | 16 | -1.92
Cc1ncc(C(=O)N2CCC[C@@]2(c2c[nH]c3ccccc23)C(F)(F)F)c(C)n1 | -8 | 1.36
CCC(CC)(CNS(=O)(=O)c1cnn(C)c1)N(C)C | 0 | 0.05
C#CCCCC(=O)N(C)c1cccc(N(C)C(=O)CCCC#C)n1 | 0 | 0
Cc1cc(N(C)Cc2cnccn2)n2nc(C)cc2n1 | -2 | 0.23
CN1C(=O)c2cc(C(F)(F)F)ccc2O[C@H]2CN(C(=O)c3ccccc3)C[C@H]21 | 1 | -0.15
OCC1(CCCc2ccccc2)CCN(C2CCC2)CC1 | -5 | 0.62
O=C(NC1CCCCCC1)c1csc(-c2cccs2)n1 | -15 | 1.92
CCC(C)OCC(=O)NC(C#N)c1cccc(Br)c1 (configuration not stated) | -4 | 0.53
COc1ccc(C(=O)N2CCN(c3nnc4ccc(C(F)(F)F)cn34)CC2)cc1 | 28 | -3.15
O=C1CC2(CCN(Cc3cccc(-c4ccc(Cl)cc4)c3)CC2)CN1 | 3 | -0.55
O=S(=O)(c1ccccc1OC(F)(F)F)N1C2CCC1CC(Oc1ccccn1)C2 (configuration not stated) | -1 | 0.14
CCn1cc(CNC(=O)CCCC2CCCCC2)c(=O)[nH]c1=O | -4 | 0.65
O=C(Nc1ccccc1C(=O)N1CCCCC1)C1CCN(S(=O)(=O)Cc2ccccc2)CC1 | -6 | 1.07
NC(=O)c1cncc(NCCCOC2CCCC2)n1 | -23 | 2.23
Cn1cc(S(=O)(=O)N2CCCC2)cc1C(=O)Nc1ccccc1C(=O)Nc1cccc(F)c1 | -9 | 1.72
CC(C)N(CC#CCNC(=O)c1cncc(Br)c1)C(C)C | -4 | 0.76
Cn1ncc(-c2cc3ccccc3o2)c1N | -8 | 0.77

SMILES | % Inhibition [%] | Z score
COC[C@](C)(CC(=O)OC)NCC#Cc1ccc(Cl)cc1 | -3 | 0.52
CCc1nc2c(c(N3CCCCC3)n1)C1(CCCC1)Cc1ccccc1-2 | -8 | 1.05
CC(CCNC(=O)OC(C)(C)C)CC(C)NCCn1cccn1 (configuration not stated) | -11 | 1.46
CC(C)Oc1cccc(CC(=O)N(C)CCCC(=O)O)c1 | -15 | 1.28
CCc1cnc(C)nc1N[C@@H](COC)c1ccnn1C | -10 | 1.34
COc1ccc([C@@H]2CN(C(=O)OC(C)(C)C)CCN2)cc1 | -2 | 0.38
COc1nc2c(cc1CNC(=O)[C@@H]1CNC(=O)N1)C(=O)N(C1CCCC1)C2 | -13 | 1.38
Cc1ncc(CN[C@H]2CC(=O)N(Cc3cccc(F)c3)C2)n1C | 0 | 0.09
CC(C)n1c([C@H](C)NCc2ccon2)nc2ccccc21 | -10 | 1.08
O=C(Cn1cnc2ccccc21)N1CCC(N2CC(=O)N(CC(F)(F)F)C2=O)CC1 | 1 | -0.15
O=C1NC(=O)[C@@]2(CCCN(S(=O)(=O)c3cccc4c3OC(F)(F)O4)C2)N1 | -20 | 1.99
CCCNS(=O)(=O)c1cc(-c2c(C)noc2NC(C)=O)ccc1OC | -10 | 1.42
CN(CCCNC(=O)C1CCN(c2ccc(N3CCCC3)nn2)CC1)c1ccccc1 | -25 | 4.44
O=C(Cc1ccc(-n2ccnc2)cc1)N1C2CCC1CC(O)C2 (configuration not stated) | -4 | 0.44
CC(=O)Nc1cc(N[C@@H](C)c2cn(C(C)(C)C)nc2C)ccc1C | -2 | 0.22
CC1(C)C[C@@H](O)CCN(Cc2cncs2)C1 | -6 | 0.83
CCc1nsc(NC[C@H]2CCCN2S(C)(=O)=O)n1 | -7 | 1.03
CCCC1(C2CCN(C(=O)c3ccc(C(C)=O)cc3)CC2)NC(=O)N(CC2CCCO2)C1=O (configuration not stated) | -8 | 1.05
Cc1ccnc(N2Cc3cnc(CC(C)C)nc3C2)n1 | -13 | 2.52
Cc1cc(F)ccc1-c1nccn1CCN(C)S(C)(=O)=O | -11 | 2.02
CN1CCN(C[C@@H]2CN(C(=O)c3ccc4ncccc4c3)C[C@@H]2CO)CC1 | -9 | 1.52
O=C(NCc1ccco1)c1nn(-c2cccc(C(F)(F)F)c2)c(=O)n(Cc2ccc(F)cc2)c1=O | -13 | 1.79

SMILES | % Inhibition [%] | Z score
Cc1cnn([C@@H](C)CNC(=O)CCn2nnc3ccccc32)c1 | -3 | 0.63
CN(C[C@H]1CCCN1Cc1cnc2cnccn12)C(=O)OC(C)(C)C | 1 | -0.09
Cc1nc(COC(=O)C2CCN(S(=O)(=O)c3ccc(C(C)(C)C)cc3)CC2)cs1 | -8 | 1.17
O=C(N[C@@H]1CN(c2ccncn2)C[C@H]1CO)c1cccnc1 | -6 | 0.84
Brc1cnc(N2CCN(Cc3cocn3)CC2)nc1 | 8 | -0.89
COc1cccc(C(=O)N2CCN(C3=Nc4ccccc4Oc4ccc(OC)cc43)C[C@@H]2C)c1 | -8 | 0.77
O=C(C[C@H]1COCCN1C(=O)c1ccncc1F)c1ccco1 | -6 | 0.81
C[C@H](Nc1ccc(Nc2ccccc2)cc1)C(=O)Nc1ccc(S(N)(=O)=O)cc1 | -12 | 1.95
COc1ccc(NS(=O)(=O)Cc2ccccc2)c(C)n1 | -6 | 0.59
Cc1noc(C(C)C)c1NC(=O)N1CCOC[C@H]1c1ccco1 | -6 | 0.93
O=S(=O)(c1ccc2c(c1)CCO2)N1CCN(c2cnccn2)CC1 | -3 | 0.46
CCn1ccnc1CN(C)Cc1cccc2nonc12 | -8 | 1.06
Cc1n[nH]c(C)c1NC(=O)CCCCOc1cccc(C#N)c1 | -6 | 1.12
CC(C)Cc1nc(C(=O)N[C@H]2CCc3nccn3C2)cs1 | -6 | 0.82
Cc1nc(C)c(C(=O)N2CCc3sccc3[C@@H]2C)s1 | 3 | -0.63
COc1ccc([C@@H]2COCCN2Cc2[nH]c(C)nc2C)cc1 | -3 | 0.69
CC1CC(C(=O)O)CC(C)N1Cc1ccn(-c2ccc(Cl)cc2)n1 (configuration not stated) | -13 | 2.13
C[C@@H](CO)NC(=O)Nc1cc(Br)c(F)cc1Cl | 34 | -1.23
Cc1ncnc2c1ncn2-c1cccc(NC(=O)c2ccc3c(c2)OCO3)c1 | -16 | 2.27
CCc1cc(C(=O)N2CCC(CCN(CC)CC3CC3)CC2)sc1C | 6 | -0.71
Cc1ccc(CC(=O)Nc2[nH]nnc2C(=O)N2CCCC2)cc1C | 10 | -1.2
O=C(Nc1nn2cc(-c3ccccc3)nc2s1)C1CCCC1 | 10 | -1.13

SMILES | % Inhibition [%] | Z score
Clc1ccc(-c2ccnc3nc([C@@H]4CCCO4)nn23)c(Cl)c1 | 8 | -1.04
CCn1cncc1S(=O)(=O)N1CCOCC2(CC2)C1 | 1 | -0.25
COc1cccc(C(=O)N(Cc2cccc(Cl)c2)[C@H]2CCS(=O)(=O)C2)c1 | -13 | 1.12
O=C(Nc1ccccc1F)c1nnc(CNS(=O)(=O)c2ccccc2)s1 | 12 | -1.41
OC(Cc1ccccc1)CN(Cc1ccccc1)CC1CC(c2ccccc2F)=NO1 (configuration not stated) | -8 | 1.68
CCOc1ccc(CN2C(=O)CC[C@@]2(C)C(=O)NCCC(C)C)cc1 | 2 | -0.24
Cc1ccc([C@@H]2CCCCCN2C(=O)Nc2ccccc2C(F)(F)F)s1 | -2 | 0.31
CCCCN(C)S(=O)(=O)NCCc1cc(C)ccc1OC | 3 | -0.61
CN1CC[C@](C)(CN(C)S(=O)(=O)Cc2ccc(Cl)cc2F)C1 | -3 | 0.62
c1c[nH]c(-c2nc([C@H]3CCOC3)nn2C2Cc3ccccc3C2)c1 | -7 | 1.22
O=C1CCCCCN1CCc1ncnn1C1CCCCC1 | 1 | -0.16
CNC(=O)c1ccccc1NCC(C)(C)C(=O)NC | 2 | -0.2
Cc1n[nH]cc1CNC(=O)c1ccc(C(F)(F)F)c(=O)[nH]1 | 3 | -0.42
COc1ccc(-c2c(C)nn3c(O)cc(Cc4ccccc4)nc23)cc1OC | 35 | -3.92
O=C(NC1CCCCCC1CO)c1cc(C2CC2)on1 (configuration not stated) | -7 | 0.84
O=C(NCc1cccnc1Oc1ccc(F)cc1F)c1c[nH]c(=O)[nH]1 | -19 | 2.79
O=C(NC[C@H]1CCCC[C@@H]1O)c1cc2n(n1)CCC2 | -4 | 0.58
Cc1cnc(N2CC[C@H](c3cnn(C)c3)C2)c(Br)c1 | -7 | 1.29
Cc1nc(C(Cl)(Cl)Cl)nc(C(Cl)(Cl)Cl)n1 | 6 | -0.7
CC1CCC(C(=O)N2CC[S+]([O-])C(C)(C)C2)O1 (configuration not stated) | 23 | -2.6
